From patent US20240327412A1, “FACTOR XIIA INHIBITORS” (KALVISTA PHARMACEUTICALS LIMITED, priority 2021, published 2024)
At least one read-out could not be matched to a standard name with certainty.

Biological target: T1, Human Factor XIIa (Homo sapiens, UniProt P00748)
T1 construct: Proteolytic cleavage of FXII to heavy and light chains of FXIIa dramatically increases catalytic activity; purchased Enzyme Research Laboratories
T1 sequence (P00748 373-615 limits assumed): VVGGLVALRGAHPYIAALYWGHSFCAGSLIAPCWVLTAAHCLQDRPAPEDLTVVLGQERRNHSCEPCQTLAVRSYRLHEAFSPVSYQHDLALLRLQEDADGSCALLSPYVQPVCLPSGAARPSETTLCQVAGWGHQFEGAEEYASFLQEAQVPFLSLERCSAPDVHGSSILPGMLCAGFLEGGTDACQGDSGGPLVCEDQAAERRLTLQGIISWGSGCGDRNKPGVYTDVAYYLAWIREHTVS
T1 sequence (P00748 20-372 partner limits assumed): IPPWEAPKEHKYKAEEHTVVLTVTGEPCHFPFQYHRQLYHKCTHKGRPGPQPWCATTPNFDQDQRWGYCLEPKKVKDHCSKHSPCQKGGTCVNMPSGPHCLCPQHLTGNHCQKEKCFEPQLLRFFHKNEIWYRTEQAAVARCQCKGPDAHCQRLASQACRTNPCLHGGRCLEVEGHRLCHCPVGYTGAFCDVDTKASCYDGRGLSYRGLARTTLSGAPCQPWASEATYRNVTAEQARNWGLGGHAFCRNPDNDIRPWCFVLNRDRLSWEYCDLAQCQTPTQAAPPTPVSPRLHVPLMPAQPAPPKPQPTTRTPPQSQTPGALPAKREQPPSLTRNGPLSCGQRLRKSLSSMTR
Test: Determination of FXIIa inhibition (fluorogenic substrate H-DPro-Phe-Arg-AFC, IC50 assay)
Format: biochemical
Details: % inhibition at 40, 100 or 400 μM
Description: In vitro inhibition of Factor XIIa was determined using an IC50 assay based on standard literature methods (see e.g Baeriswyl et al., ACS Chem. Biol., 2015, 10 (8) 1861; Bouckaert et al., European Journal of Medicinal Chemistry 110 (2016) 181). Human Factor XIIa (Enzyme Research Laboratories) was incubated at 25° C. with the fluorogenic substrate H-DPro-Phe-Arg-AFC (Peptide Protein Science) and various concentrations of the test compound. Protease activity was measured by monitoring the accumulation of liberated fluorescence from the substrate over 5 min at 25° C. The linear rate of fluorescence increase per minute was expressed as percentage (%) activity. The Km for the cleavage of the substrate by FXIIa was determined by standard transformation of the Michaelis-Menten equation. The compound inhibitor assays were performed at substrate Km concentration. IC50 values were calculated as the concentration of inhibitor giving 50% inhibition (IC50) of the uninhibited enzyme activity (100%).

SMILES	Human FXII IC50 (nm): category for test compounds that did not achieve 50% inhibition
O=C1NCc2cc(OCC34COC(CNc5ccnc6[nH]c(Cl)cc56)(C3)C4)ccc21 [Example 6651, 5-((1-(((2-chloro-1H-pyrrolo[2,3-b]pyridin-4-yl)amino)methyl)-2-oxabicyclo[2.1.1]hexan-4-yl)methoxy)isoindolin-1-one]	H1 (>20% inhibition @ 40 μM)
Clc1c[nH]c2ccc(NCC34CC(COc5ccn6ccnc6c5)(CCO3)C4)cc12 [Example 10970, 3-chloro-N-((5-((imidazo[1,2-a]pyridin-7-yloxy)methyl)-2-oxabicyclo[3.1.1]heptan-1-yl)methyl)-1H-indol-5-amine]	H2 (>20% inhibition @ 100 μM)
Nc1nccc2c(NCC34CC(Cc5nnccc5O)(CCO3)C4)cccc12 [Example 10966, 3-((1-(((1-aminoisoquinolin-5-yl)amino)methyl)-2-oxabicyclo[3.1.1]heptan-5-yl)methyl)pyridazin-4-ol]	H1 (>20% inhibition @ 40 μM)
Clc1c[nH]c2ncc(NCC34CC(COc5ccn6ccnc6c5)(C3)C4)cc12 [Example 1129, 3-chloro-N-((3-((imidazo[1,2-a]pyridin-7-yloxy)methyl)bicyclo[1.1.1]pentan-1-yl)methyl)-1H-pyrrolo[2,3-b]pyridin-5-amine]	H2 (>20% inhibition @ 100 μM)
COc1ccnc(NCC23CC(COc4ccc5ncc(C)n5c4)(CO2)C3)c1 [Example 6663, 4-methoxy-N-((4-(((3-methylimidazo[1,2-a]pyridin-6-yl)oxy)methyl)-2-oxabicyclo[2.1.1]hexan-1-yl)methyl)pyridin-2-amine]	H2 (>20% inhibition @ 100 μM)
Cc1cc(OCC23CN(C(=O)OC(C)(C)C)C(CNc4cccc5cnccc45)(C2)C3)cc(=O)n1C [Example 12046, tert-butyl 4-(((1,6-dimethyl-2-oxo-1,2-dihydropyridin-4-yl)oxy)methyl)-1-((isoquinolin-5-ylamino)methyl)-2-azabicyclo[2.1.1]hexane-2-carboxylate]	H2 (>20% inhibition @ 100 μM)
Cc1cn(C)c2cc(NCC34CC(COc5ccc6ncc(C)n6c5)(CO3)C4)ccc12 [Example 6656, 1,3-dimethyl-N-((4-(((3-methylimidazo[1,2-a]pyridin-6-yl)oxy)methyl)-2-oxabicyclo[2.1.1]hexan-1-yl)methyl)-1H-indol-6-amine]	H2 (>20% inhibition @ 100 μM)
Nc1nccc2c(NCC34CC(Cn5ccc(=O)cn5)(CCO3)C4)cccc12 [Example 10965, 1-((1-(((1-aminoisoquinolin-5-yl)amino)methyl)-2-oxabicyclo[3.1.1]heptan-5-yl)methyl)pyridazin-4(1H)-one]	H1 (>20% inhibition @ 40 μM)
Clc1ccc(NCC23CC(COc4ccn5ccnc5c4)(CCO2)C3)cc1 [Example 10918, 4-chloro-N-((5-((imidazo[1,2-a]pyridin-7-yloxy)methyl)-2-oxabicyclo[3.1.1]heptan-1-yl)methyl)aniline]	H3 (>20% inhibition @ 400 μM)
Clc1cccc(NCC23CC(COc4ccn5ccnc5c4)(CCO2)C3)c1 [Example 10919, 3-chloro-N-((5-((imidazo[1,2-a]pyridin-7-yloxy)methyl)-2-oxabicyclo[3.1.1]heptan-1-yl)methyl)aniline]	H3 (>20% inhibition @ 400 μM)
Cn1ccc(OCC23CN(C(=O)OC(C)(C)C)C(CNc4ccc5ccncc5c4)(C2)C3)cc1=O [Example 12063, tert-butyl 1-((isoquinolin-7-ylamino)methyl)-4-(((1-methyl-2-oxo-1,2-dihydropyridin-4-yl)oxy)methyl)-2-azabicyclo[2.1.1]hexane-2-carboxylate]	H2 (>20% inhibition @ 100 μM)
